The other results are listed elsewhere or left out. The full chains were built here from the parent and the listed change. Inactive controls read about 0.05.
B1: TEV protease; numbered along this chain (parent)
chain: MGESLFKGPRDYNPISSSICHLTNESDGHTTSLYGIGFGPFIITNKHLFRRNNGTLVVQSLHGVFKVKDTTTLQQHLVDGRDMIIIRMPKDFPPFPQKLKFREPQREERICLVTTNFQTKSMSSMVSDTSCTFPSGDGIFWKHWIQTKDGQCGSPLVSTRDGFIVGIHSASNFTNTNNYFTSVPKNFMELLTNQEAQQWVSGWRLNADSVLWGGHKVFMVKPEEPFQPVKEATQL

Variants of: B1
Assay: raw area under fraction-flipped curve 0-4 h after induction (AUC4h, not background-subtracted), DNA-recorder readout of cleavage of the substrate (dimensionless); higher = more cleavage of the substrate by the protease variant
Settings: temperature: 34 °C; time window: 0-4 h after rhamnose induction
Method: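 In vivo DNA recorder in E. coli TOP10(DE3) ΔrhaA at 34 °C. Each TEVp single-site mutant (parent TEVp 0) is paired with a single-site variant of the 7-mer TEVs (canonical ENLYFQ|S). The substrate sits between flexible linkers in a Bxb1-sfGFP-TEVs-SsrA fusion, so cleavage stabilises Bxb1 and speeds flipping of a recombination array, read by NGS. The value is the raw area under the fraction-flipped curve over 0-4 h after rhamnose induction (AUC4h), with ≥20 reads per time point. It is not background-subtracted; inactive controls average about 0.047.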
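Also: Bxb1 expression induced with 0.2% (w/v) L-rhamnose at OD600 near 0.5, cultures sampled hourly, flipped fraction per protease–substrate barcode pair counted by paired-end Illumina sequencing.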

| Variant | area with substrate ENLYAQS | area with substrate ENLYCQS | area with substrate ENLYEQS | area with substrate ENLYGQS | area with substrate ENLYHQS | area with substrate ENLYLQS | area with substrate ENLYMQS | area with substrate ENLYNQS | area with substrate ENLYQQS | area with substrate ENLYRQS | area with substrate ENLYVQS | area with substrate ENLYYQS | area with substrate ENLYDQS | area with substrate ENLYKQS | area with substrate ENLYPQS | area with substrate ENLYSQS | area with substrate ENLYTQS | area with substrate ENLYWQS | area with substrate ENLYIQS |
| --- | --- | --- | --- | --- | --- | --- | --- | --- | --- | --- | --- | --- | --- | --- | --- | --- | --- | --- | --- |
| L156S | 0.0611 | 0.0518 | 0.0651 | 0.0609 | 0.0367 | 0.0634 | 0.0603 | 0.0622 | 0.0483 | 0.0525 | 0.072 | 0.0728 |  |  |  |  |  |  |  |
| S123E | 0.0837 | 0.141 | 0.064 |  | 0.0641 | 0.0729 | 0.0913 | 0.069 | 0.0598 |  |  | 0.0652 | 0.0741 | 0.0731 | 0.0773 | 0.0725 | 0.071 | 0.0862 |  |
| S123G | 0.0892 |  | 0.0722 | 0.0654 | 0.0621 |  | 0.0841 | 0.0868 | 0.0699 | 0.0715 | 0.131 | 0.0621 | 0.0565 | 0.0697 | 0.0867 | 0.0674 | 0.0927 | 0.0698 | 0.105 |
| S124F | 0.0626 | 0.0668 | 0.0695 | 0.0566 | 0.0516 | 0.0853 |  | 0.0688 | 0.0468 |  | 0.113 | 0.06 |  | 0.0595 | 0.0653 | 0.0671 | 0.0651 | 0.0693 | 0.0998 |
| S124T | 0.067 |  |  | 0.104 | 0.0594 |  |  | 0.0558 | 0.0635 | 0.0804 | 0.101 | 0.0467 |  | 0.0258 |  | 0.0739 |  | 0.0775 | 0.143 |
| F133V | 0.0597 |  | 0.0707 |  | 0.0612 | 0.0713 | 0.0828 | 0.0588 | 0.0584 | 0.0593 | 0.124 | 0.0645 | 0.064 | 0.059 | 0.0747 | 0.0557 |  |  | 0.104 |
| F133C | 0.0708 | 0.0816 | 0.0711 | 0.0725 | 0.083 |  |  | 0.0688 | 0.0481 |  | 0.124 |  | 0.059 | 0.0416 |  |  |  |  | 0.134 |
| S135V | 0.0428 |  | 0.0557 |  | 0.0379 |  | 0.0665 | 0.061 | 0.0603 |  | 0.0779 |  | 0.0637 | 0.0709 | 0.0561 | 0.0649 |  | 0.0624 | 0.0628 |
| S135P | 0.0651 |  | 0.0686 | 0.0602 | 0.0595 |  |  | 0.0597 |  | 0.0604 | 0.0775 | 0.0583 |  | 0.0617 | 0.0618 | 0.0564 |  | 0.0545 |  |
| S135G | 0.0482 |  | 0.0612 | 0.0686 | 0.0571 | 0.101 | 0.0573 | 0.062 |  | 0.0646 | 0.0879 |  | 0.0629 | 0.0584 | 0.0555 | 0.0663 | 0.0779 | 0.0559 | 0.0719 |
| N193G | 0.0638 |  | 0.0528 | 0.0685 | 0.0466 |  |  |  |  | 0.0676 |  |  | 0.053 | 0.0635 |  |  | 0.104 |  | 0.0916 |
| V165G | 0.0573 |  | 0.0556 | 0.0538 | 0.0412 |  | 0.0695 | 0.0405 | 0.0532 | 0.0563 | 0.0705 |  | 0.0449 | 0.0349 | 0.0519 |  |  | 0.0523 | 0.0558 |
| E189M | 0.0611 | 0.0512 | 0.0573 | 0.0598 | 0.0694 |  | 0.0765 | 0.0655 | 0.0643 | 0.0664 | 0.0857 | 0.055 | 0.0875 | 0.0634 | 0.0689 | 0.0728 | 0.0806 | 0.0737 | 0.131 |
| G150Q | 0.0642 | 0.0643 | 0.0566 | 0.0731 | 0.0507 |  | 0.0734 |  | 0.058 | 0.0661 |  |  | 0.0602 | 0.0639 | 0.0609 |  |  | 0.0768 |  |
| T192A | 0.0751 |  | 0.0673 | 0.0639 | 0.0702 |  | 0.0665 | 0.0669 |  | 0.0603 | 0.107 |  | 0.0508 | 0.0554 | 0.0554 | 0.062 |  | 0.0654 | 0.131 |
| P184M | 0.0533 | 0.0553 | 0.0623 | 0.0458 | 0.0594 | 0.0705 | 0.0633 | 0.0371 | 0.0632 | 0.0664 |  | 0.0545 | 0.0538 | 0.0424 | 0.0627 | 0.0634 |  | 0.0535 | 0.0752 |
| G166I | 0.0353 | 0.0498 | 0.0583 | 0.06 | 0.0524 |  | 0.0599 | 0.0459 |  |  | 0.0363 | 0.05 | 0.0603 | 0.042 | 0.053 |  | 0.0562 |  | 0.0454 |
| P155H | 0.0503 | 0.0553 | 0.0541 | 0.0437 | 0.0493 |  | 0.0554 |  | 0.056 | 0.0566 | 0.0291 | 0.0489 | 0.0528 | 0.0244 | 0.0519 |  |  |  | 0.0609 |
| P155V | 0.0773 | 0.0899 | 0.0596 | 0.0595 | 0.0861 |  |  | 0.0545 | 0.0329 |  | 0.108 | 0.0492 |  | 0.081 | 0.0616 |  |  | 0.0733 | 0.102 |
| P155N | 0.063 | 0.0598 | 0.0672 | 0.0551 | 0.058 | 0.0097 | 0.0604 | 0.0529 | 0.0432 | 0.05 | 0.0416 | 0.0375 | 0.046 | 0.0446 | 0.0507 |  | 0.0561 | 0.0575 | 0.0568 |
| S158D | 0.0793 |  | 0.07 |  |  |  | 0.0712 |  | 0.0596 | 0.0302 |  | 0.0526 | 0.0541 | 0.0671 |  |  | 0.0579 | 0.0704 | 0.104 |
| S130I | 0.0518 |  |  | 0.0576 | 0.0828 |  | 0.0751 | 0.071 |  | 0.0605 |  | 0.0693 |  | 0.0519 | 0.0729 | 0.0684 |  |  | 0.143 |
| Q194T | 0.0954 | 0.0844 | 0.063 | 0.072 | 0.0852 |  |  | 0.0729 | 0.0623 | 0.0739 | 0.119 | 0.0599 | 0.0653 | 0.07 | 0.0852 |  | 0.0893 | 0.123 | 0.128 |
| Q198D | 0.0588 |  | 0.0954 | 0.0771 | 0.0794 |  | 0.0912 | 0.0585 | 0.0629 |  |  | 0.0687 | 0.0487 |  | 0.0708 | 0.086 |  |  | 0.146 |
| L190H | 0.0555 |  | 0.0591 |  | 0.0571 |  | 0.0757 | 0.0735 | 0.0646 |  | 0.0862 | 0.059 |  | 0.0761 | 0.069 | 0.0679 |  | 0.0712 | 0.0941 |

Reference: the supplement of paper PMC12217912
